Test results: article PMC4336329 (PLoS ONE, 2015)
The campaign covered roughly 310,000 compounds. About 14,000 (4.5%) showed an effect of 50% or more. Effects have a minus sign here. The list shows a part of the results.

Each compound was assayed against human ether-à-go-go-related gene (hERG) potassium channel (human, UniProt Q12809) (assay: primary screen, population patch clamp on CHO cells stably expressing hERG).
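Note: peak tail current of the secondary pulse compared with the same well before compound.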

Sequence of human ether-à-go-go-related gene (hERG) potassium channel (Q12809 whole entry, looked up): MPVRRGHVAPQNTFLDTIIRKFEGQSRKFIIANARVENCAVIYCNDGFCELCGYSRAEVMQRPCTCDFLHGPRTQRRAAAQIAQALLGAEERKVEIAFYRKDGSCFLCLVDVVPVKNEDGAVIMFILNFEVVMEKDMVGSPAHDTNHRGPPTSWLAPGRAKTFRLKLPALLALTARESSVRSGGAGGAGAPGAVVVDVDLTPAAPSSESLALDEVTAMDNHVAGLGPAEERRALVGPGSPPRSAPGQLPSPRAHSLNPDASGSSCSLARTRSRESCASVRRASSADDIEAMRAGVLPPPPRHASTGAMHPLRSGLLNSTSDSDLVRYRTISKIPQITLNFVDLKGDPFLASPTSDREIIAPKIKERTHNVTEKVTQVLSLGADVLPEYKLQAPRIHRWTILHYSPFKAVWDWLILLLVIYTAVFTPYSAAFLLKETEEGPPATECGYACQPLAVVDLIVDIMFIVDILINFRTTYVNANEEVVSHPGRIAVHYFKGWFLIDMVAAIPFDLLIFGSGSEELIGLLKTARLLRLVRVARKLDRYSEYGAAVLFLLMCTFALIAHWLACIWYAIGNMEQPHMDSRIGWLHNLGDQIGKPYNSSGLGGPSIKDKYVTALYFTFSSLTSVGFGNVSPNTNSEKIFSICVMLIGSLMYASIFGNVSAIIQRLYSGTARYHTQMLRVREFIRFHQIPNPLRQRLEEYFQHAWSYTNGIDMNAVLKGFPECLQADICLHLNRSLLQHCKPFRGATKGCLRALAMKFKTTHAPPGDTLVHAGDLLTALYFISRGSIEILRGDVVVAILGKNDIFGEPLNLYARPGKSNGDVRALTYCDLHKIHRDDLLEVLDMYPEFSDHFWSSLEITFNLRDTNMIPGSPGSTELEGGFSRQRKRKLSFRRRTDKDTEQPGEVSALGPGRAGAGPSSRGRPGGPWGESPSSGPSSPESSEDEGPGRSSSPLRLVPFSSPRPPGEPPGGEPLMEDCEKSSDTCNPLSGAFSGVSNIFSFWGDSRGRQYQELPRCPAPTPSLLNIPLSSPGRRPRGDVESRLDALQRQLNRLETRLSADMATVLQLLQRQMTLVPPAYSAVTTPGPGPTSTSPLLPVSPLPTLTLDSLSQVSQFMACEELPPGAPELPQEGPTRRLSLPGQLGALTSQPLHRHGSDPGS

SMILES | hERG current change (%, negative = inhibition) at 10uM [%]
CCCn1c(SCC(=O)Nc2nnc(C)s2)nnc1-c1ccoc1C | 3.4
O=[N+]([O-])c1ccccc1S(=O)(=O)N(CC1CO1)c1ccccc1 (centres unmarked) | 18.4
COc1ccccc1CNC(=S)NCCc1ccccc1 | -0.0599
O=C(Nc1ccccc1)Nc1nccs1 | -0.868
O=C1c2ccc(Oc3ccc4c(c3)C(=O)N(CCCCO)C4=O)cc2C(=O)N1CCCCO | -24.1
COc1ccc(CC(NC(C)=O)C(=O)NC2CCN(C(=O)c3cc(OC)c(OC)c(OC)c3)CC2)cc1 (centres unmarked) | 14.5
O=C(O)c1ccc2c(c1)C(=O)/C(=C/c1ccccc1)C2=O | 27.4
CCOC(=O)c1ccc(Nc2nc(C)nc3c2nnn3Cc2ccccc2)cc1 | 9.59
COC(=O)N/N=C(\C)c1ccccc1OC(F)F | 1.52
O=C(NC1CC2CCCC(C1)N2C(=O)Nc1ccccc1)c1ccccc1 (centres unmarked) | 6.05
CCn1nnnc1SCC(=O)Nc1ccc(F)cc1 | 15.1
COc1ccc(C2C(C#N)=C(C)NC(C)=C2C(=O)OC(C)C)c(OC)c1 (centres unmarked) | -4.94
CS(=O)(=O)c1ccccc1C(=O)NCCC(c1ccccc1)c1ccccc1 | -51.9
Cc1ccc(S(=O)(=O)N2CCOC2CNC(=O)C(=O)NCc2ccccn2)cc1 (centres unmarked) | 0.156
Cc1cc(C(=O)Nc2sc3c(c2C#N)CCCC3)no1 | 7.07
O=C(NCc1ccccc1)C(=O)NCC1OCCN1C(=O)c1ccc(Cl)cc1 (centres unmarked) | -21.3
Cc1nn(C)cc1CNC(=O)c1ccc(Br)o1 | 4.51
O=C(Nc1ccc(-c2cnco2)cc1)c1ccc(Cl)cc1 | 10.8
CCOC(=O)c1c(-c2cccc([N+](=O)[O-])c2)csc1NC(=O)C1CCCCC1 | 22.9
COc1cccc(NC(=O)C(=O)NCCC2CCCCN2S(=O)(=O)c2cccs2)c1 (centres unmarked) | -20.4
CCOC(=O)C(NC(C)=O)C(=O)Nc1c(C)cccc1C (centres unmarked) | -2.82
O=C(CN(Cc1ccccc1)C(=O)c1csnn1)NCCc1ccccc1 | -18.9

SMILES | hERG current change (%, negative = inhibition) at 10uM [%]
CCOc1ccc2nc(C)cc(C(=O)O)c2c1 | -2.09
Cl.N#C/C(=C/c1cc(Cl)c(O)c(Cl)c1)C(=O)N1CCCCC1 | 5.15
CC1Cc2cc(S(=O)(=O)N3CCC(C(N)=O)CC3)ccc2N1C(=O)C1CC1 (centres unmarked) | 17.3
CC(=O)Nc1ccc(NC(=O)C(C)OC(=O)c2c(NC(C)=O)sc(C)c2C)cc1 (centres unmarked) | 1.54
COc1ccc(NC(=O)c2ccc(Cl)c(S(=O)(=O)NCC3CCCO3)c2)c(OC)c1 (centres unmarked) | -7.25
O=C(Nc1nnc(S(=O)(=O)N2CCCCCC2)s1)c1ccccc1Cl | -4.58
O=C(NCc1cccnc1)c1ccc(CS(=O)(=O)Cc2ccc(Cl)cc2)o1 | -7.95
Nc1ccccc1Oc1c(F)c(F)c(Oc2ccccc2N)c(F)c1F | 17.8
CCC(=O)N1N=C(c2c(O)n(CCc3ccccc3)c(=O)[nH]c2=O)CC1c1ccc(OC)c(OC)c1 (centres unmarked) | 28.1
CCOC(=O)N1CCN(C(=O)c2ccc3c(c2)N=C(CC)c2cc(C)ccc2S3)CC1 | -3.5
Cc1ccc(NC(=O)CN2CCOCC2)c(Br)c1 | -9.76
CC(C)c1cc(CNC(=O)C2CCC(=O)N(CCc3ccc(Cl)cc3)C2)on1 (centres unmarked) | -68.1
O=C(c1ccc(Cl)c(F)c1F)N1CCOCC1 | -1.87
O=C(/C=C/c1ccccc1)OCC(=O)N1CCCC1 | 0.185
CCN(CC)c1ccc(/C=N/c2sc3c(c2C#N)C2CCN3CC2)c(O)c1 | 30.1
CCOc1cc(C2C3=C(CCCC3=O)OC3=C2C(=O)CCC3)cc([N+](=O)[O-])c1O | 1.98
COc1ccc(N2CCN(C(=O)C(OC(C)=O)c3ccccc3)CC2)cc1 (centres unmarked) | -0.89
COc1ccc(-n2nccc2-c2nn(-c3cccc(OC)c3)c(=O)n(C)c2=O)cc1 | 11.7
COc1cc2ncnc(Nc3ccc4c(c3)OCO4)c2cc1OC | 14.1
CCOC(=O)c1ccc(COC(=O)CNC(=O)CNC(=O)Cc2ccccc2)cc1 | -57.2
COc1cc(OC)cc(C(=O)N(CCCN2C(=O)c3cccc4cccc(c34)C2=O)c2cccc(OC)c2)c1 | 9.2
COC(=O)c1ccc(-c2cc3onc(-c4ccccc4)c3c(=O)n2C)cc1 | 7.55
